Test [1] has as its system HSkMC (human skeletal muscle cells). The test is described as follows: cytotoxicity call (relative viability < 0.9). Particulars: 10 µM.
Test [2] relates to HepG2. Nature of the test: cytotoxicity call (relative viability < 0.9). The settings on record: 10 µM.
Test [3] relates to S. aureus RN4220. Nature of the test: growth inhibition call (relative growth <= 0.2). Particulars: 50 µM.

The other results are listed elsewhere or left out.

With `COc1ccc(-c2cnc3c(c2)C(=O)N([C@@H](C)CO)C[C@@H](C)[C@@H](CN(C)C(=O)Cc2cccnc2)O3)cc1`, the cytotoxicity call in test [1] and in test [2] was “inactive” throughout. For the same compound, the growth inhibition call in test [3] was “inactive”.

As to `COCCNC(=O)C[C@H]1CC[C@H]2[C@@H](COc3ccc(NC(=O)Nc4cccc(F)c4)cc3C(=O)N2C)O1`, the cytotoxicity call in test [1] and in test [2] was “inactive” in each case. Also, in test [3], the growth inhibition call was “inactive”.

For the compound `CN(C)CCN1[C@]2(CCN(C(=O)N3CCOCC3)C2)c2ccccc2S1(=O)=O`, the cytotoxicity call in test [1] and in test [2] was “inactive” throughout. Moreover, in test [3], the growth inhibition call was “inactive”.

Turning to `COCC#Cc1ccc2c(c1)O[C@H](CN(C)C(=O)c1ccccc1F)[C@H](C)CN([C@H](C)CO)S2(=O)=O`, the cytotoxicity call in test [1] and in test [2] was “inactive” throughout. Further, in test [3], the growth inhibition call was “inactive”.

Turning to `CCCNC(=O)C[C@@H]1CC[C@H]2NC[C@H](O)COC[C@@H]2O1`, the cytotoxicity call in test [1] and in test [2] was “inactive” in each case. The growth inhibition call in test [3] was “inactive”.

Regarding `CCCC(=O)Nc1ccc2c(c1)OC[C@@H](C)N(Cc1ccc(-c3ccccn3)cc1)C[C@@H](C)[C@H](OC)CN(C)C2=O`, the cytotoxicity call in test [1] and in test [2] was “inactive” each time. The growth inhibition call in test [3] was “inactive”.

Consider `COc1ccc(S(=O)(=O)Nc2ccc3c(c2)CC(=O)N([C@H](C)CO)C[C@@H](C)[C@@H](CN(C)C)O3)cc1`, for which, in test [1], the cytotoxicity call is “inactive”. In test [2], the cytotoxicity call was “active”. Further, in test [3], the growth inhibition call is “inactive”.

As for `C[C@@H]1CN([C@@H](C)CO)S(=O)(=O)c2ccc(C#CCN(C)C)cc2O[C@H]1CN(C)Cc1ccccn1`, the cytotoxicity call in test [1] and in test [2] was “inactive” each time. Further, the growth inhibition call in test [3] was “inactive”.

In the case of `CCOC(=O)c1nonc1N`, the cytotoxicity call in test [1] and in test [2] was “inactive” each time. The growth inhibition call in test [3] was “inactive”.

On to `CCCNC(=O)N(C)C[C@@H]1Oc2ncc(-c3ccc(C(=O)N(C)C)cc3)cc2C(=O)N([C@H](C)CO)C[C@@H]1C`, for which the cytotoxicity call in test [1] and in test [2] was “inactive” throughout. Besides, the growth inhibition call in test [3] is “inactive”.

Take `CC(C)NC(=O)N(C)C[C@@H]1Oc2ccc(NC(=O)Nc3ccc4c(c3)OCO4)cc2C(=O)N([C@@H](C)CO)C[C@H]1C`: the cytotoxicity call in test [1] and in test [2] was “inactive” in each case. Besides, the growth inhibition call in test [3] was “inactive”.

Take `N=c1ccn2c(n1)O[C@H]1[C@H](O)[C@@H](CO)O[C@H]12`: in test [1], the cytotoxicity call was “active”. In addition, in test [2], the cytotoxicity call was “inactive”. For the same compound, in test [3], the growth inhibition call is “inactive”.

On to `Cc1cc(C(=O)Nc2cccc3c2O[C@H](CN(C)S(=O)(=O)c2c(C)noc2C)[C@H](C)CN([C@@H](C)CO)C3=O)n(C)n1`, for which the cytotoxicity call in test [1] and in test [2] was “inactive” each time. Further, the growth inhibition call in test [3] is “inactive”.

`CN(C)c1nc(N)nc(Cn2ccnc2)n1`: the cytotoxicity call in test [1] and in test [2] was “inactive” each time. Also, in test [3], the growth inhibition call was “inactive”.

The record behind these values is the antibiotic and cytotoxicity screens of Wong et al. (2023).
